Reference: article PMC7530023 (Molecular neurobiology, 2020)

Molecular target: the molecule itself
Assay: thioflavin S fluorescence aggregation assay

B1: K18 fragment of tau (the R1–R4 core domain) (domain or fragment)
chain: not shown
  binding result: binds
